± gives the standard deviation of the averaged measurements. Over roughly 33,000 sequences, “E-score (dimensionless, -0.5 to 0.5)” has its median near -0.046; the highest 2% begin near 0.36. This is one part of the list.
system: T1, SpTbr T-box DNA-binding domain (GST fusion); assay: PBM E-score of 8-mer (E-score (dimensionless, -0.5 to 0.5)); Tbr is Tbrain of the sea star Patiria miniata (Pm) or the sea urchin Strongylocentrotus purpuratus (Sp); higher = stronger binding preference; most listed sequences are background and not binding sites; conditions: the construct has about 5 more residues each side
T1 sequence: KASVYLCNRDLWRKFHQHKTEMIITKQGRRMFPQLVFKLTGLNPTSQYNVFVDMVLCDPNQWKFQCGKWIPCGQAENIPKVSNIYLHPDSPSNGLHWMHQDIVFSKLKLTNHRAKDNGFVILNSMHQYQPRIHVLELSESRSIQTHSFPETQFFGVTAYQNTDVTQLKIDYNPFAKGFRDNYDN
Summary of the method: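 Expression of GST-fused Tbr T-box DNA-binding domains, each holding the full T-box plus roughly five flanking residues, was carried out in BL21 E. coli at 20 °C, with purification by glutathione affinity chromatography. Universal Agilent arrays made double-stranded by primer extension were incubated with the protein at 200 nM in PBS (pH 7.5), then scanned and quantified. All ungapped 8-mers were scored from probe intensities, and each received an enrichment E-score from the Universal PBM Analysis Suite, averaged over duplicate arrays.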

Sequence | PBM E-score of 8-mer
AGTACCCG | -0.148 ± 0.042
AAAATTCA | -0.00819 ± 0.0099
CAAAGGTC | -0.105 ± 0.028
AATCGGAT | -0.0152 ± 0.0036
CCAGTCGA | -0.138 ± 0.083
GGGAACGA | -0.0177 ± 0.016
AGTCTTCG | 0.018 ± 0.021
CAGTGGGA | -0.157 ± 0.0099
CATCAAAC | -0.0179 ± 0.05
GGGTTGGA | 0.00636 ± 0.061
CCCACAAA | -0.0699 ± 0.022
CTTACGGA | -0.115 ± 0.015
CGGAGAAG | -0.01176 ± 1.4e-05
AAATAGTG | 0.0853 ± 0.11
AGTAAGAT | -0.157 ± 0.064
AACTCTCA | 0.0929 ± 0.0053
CTCCTGGC | -0.045 ± 0.044
GACTGGAA | -0.121 ± 0.025
AGGCGCCC | -0.117 ± 0.067
CGACAGTA | 0.141 ± 0.011
AACACACC | 0.326 ± 0.0067
ATATTGCC | -0.119 ± 0.022
ACAAAGTA | -0.0223 ± 0.023
AGTACATC | -0.235 ± 0.068
ACGCCCAA | -0.049 ± 0.13

Sequence | PBM E-score of 8-mer
CGGCTGGA | -0.123 ± 0.0038
AGTAATAC | -0.185 ± 0.0083
AAAGTAAC | 0.175 ± 0.1
ACCTCTAG | 0.125 ± 0.0073
AGTGAATA | 0.0848 ± 0.033
GGCGCAAC | 0.145 ± 0.0099
GTGCACTA | 0.201 ± 0.059
AAGGAAGG | -0.122 ± 0.043
GCTGTCAA | 0.318 ± 0.049
TCAGAACA | -0.14 ± 0.044
CACTAGTC | 0.167 ± 0.017
CCCACGGG | -0.28 ± 0.072
ACCAGTGC | -0.0323 ± 0.048
AAGTGAGT | 0.122 ± 0.065
CGGTAAGA | -0.238 ± 0.025
CAAGCTCC | -0.227 ± 0.027
AACTGTGC | -0.0399 ± 0.045
CATTGCGC | -0.0063 ± 0.0018
GGCACCAC | 0.22 ± 0.051
AATTCCCT | -0.119 ± 0.041
TAAGTATA | -0.199 ± 0.043
ATAGACCA | -0.202 ± 0.023
TCCCCAGA | -0.129 ± 0.009
ATCACCGA | 0.125 ± 0.024
GCGAGTAA | 0.139 ± 0.034

Sequence | PBM E-score of 8-mer
AATATATG | -0.236 ± 0.018
AGTACTCC | -0.202 ± 0.0054
CGTCAGCA | 0.127 ± 0.045
ACACGGGC | -0.0843 ± 0.039
AATTTTCT | -0.327 ± 0.098
AACAGTCT | -0.139 ± 0.005
GATCTAAC | -0.0752 ± 0.046
ATAAATCC | -0.193 ± 0.015
CCCGATTC | -0.329 ± 0.011
AACAAAGT | 0.109 ± 0.0069
ATTTGAAC | -0.161 ± 0.0035
ACACTGAC | 0.197 ± 0.0044
CCCGCCAC | 0.163 ± 0.064
AAAGGGCG | 0.0609 ± 0.033
TACGCCAA | -0.0586 ± 0.029
CTTCGTCA | 0.253 ± 0.02
CGATACAC | 0.123 ± 0.0031
CGCCGAGA | 0.0271 ± 0.022
ACCGTTCG | 0.124 ± 0.052
CATCAGCA | -0.0609 ± 0.0023
CGTGGCTA | -0.0539 ± 0.033
GATCCATC | -0.126 ± 0.022
CATTGGGA | -0.0903 ± 0.027
AATCAATA | -0.154 ± 0.026
ACGAAGAC | 0.00754 ± 0.041

Sequence | PBM E-score of 8-mer
CGCTCTGA | -0.162 ± 0.045
CCCCGGTC | -0.17 ± 0.029
CCCCTCCG | 0.119 ± 0.066
AACCAATA | -0.0941 ± 0.053
AAGTGTTG | 0.422 ± 0.02
AACGAACC | 0.0448 ± 0.0011
TACAGTCA | -0.0793 ± 0.024
TGCCCCCA | -0.217 ± 0.088
CCAGTTGC | 0.104 ± 0.014
ATCATTAA | -0.186 ± 0.0045
TGAGAGCA | 0.0873 ± 0.054
ACAGCGAA | -0.139 ± 0.031
CAGTGTTC | 0.0165 ± 0.024
AAATCTGT | 0.165 ± 0.044
AAAATAGT | -0.102 ± 0.11
ATCTCGTC | 0.235 ± 0.024
CCACTGCG | 0.0281 ± 0.049
AGCCCAAG | -0.167 ± 0.068
GAGCGGCC | -0.0448 ± 0.082
ACAAGCGA | 0.132 ± 0.024
CCTGATAC | -0.265 ± 0.017
GATCTCTA | -0.103 ± 0.024
CCTTCGAC | -0.0453 ± 0.042
ACTTAACG | 0.237 ± 0.079
CACGCTGC | 0.19 ± 0.028

Sequence | PBM E-score of 8-mer
CAAGAGGC | 0.0193 ± 0.016
AGGTCCAC | -0.144 ± 0.13
AAAGCGGT | -0.113 ± 0.0042
ATGTTCGC | 0.193 ± 0.0068
CACCTATG | 0.427 ± 0.011
ACCTGTCA | 0.3306 ± 0.0014
GCGTGCTA | 0.21 ± 0.019
CTGCTCTA | -0.167 ± 0.047
ATAGATGG | -0.223 ± 0.052
CATGTTCC | -0.173 ± 0.085
ACACCTAG | 0.444 ± 0.0087
CGGCACGA | -0.153 ± 0.027
CAATTATA | -0.239 ± 0.0056
CGCCTTTA | 0.166 ± 0.095
CGGTAGTA | -0.0696 ± 0.0025
GCTTGTGA | 0.202 ± 0.074
CCAGTCTA | -0.131 ± 0.024
GCTGCCTA | -0.101 ± 0.039
ACGGGTGC | 0.188 ± 0.0078
AAATCTAC | -0.0549 ± 0.018
CTTCTACA | -0.196 ± 0.0035
CGCCAACA | 0.253 ± 0.0096
CTTGTAAA | 0.108 ± 0.095
GCAGGGAA | -0.0422 ± 0.065
AAAACCGT | 0.0214 ± 0.018

Sequence | PBM E-score of 8-mer
AGCTTCCT | -0.262 ± 0.02
AATCGGAA | 0.122 ± 0.024
GGGGAGGA | -0.163 ± 0.019
AGTAATGG | -0.0889 ± 0.056
ATGGTTGG | -0.0578 ± 0.074
AGGACCCG | -0.0395 ± 0.012
ATTTCGTG | 0.0767 ± 0.045
GAACCTTA | -0.0824 ± 0.12
CTAACAGC | 0.148 ± 0.015
ATAGCCGA | -0.123 ± 0.032
TCGTCCCA | -0.261 ± 0.0059
AACGCAGT | -0.0291 ± 0.029
ATTTGTAA | -0.0173 ± 0.028
CAGCCCTA | -0.17 ± 0.042
AATATATA | -0.0588 ± 0.083
GGGTTCAC | 0.233 ± 0.072
ATGCTGTA | -0.242 ± 0.073
GAGTATCC | -0.216 ± 0.031
CATAGACC | -0.207 ± 0.053
GGGATCTA | -0.245 ± 0.029
ATGATCAG | -0.227 ± 0.02
GAGTATCA | -0.207 ± 0.063
TCGCATCA | 0.202 ± 0.0061
CAGTAGTA | -0.0575 ± 0.012
ATGTGAAA | 0.263 ± 0.03

Sequence | PBM E-score of 8-mer
ACCACCAA | 0.0261 ± 0.018
AAGTGCTC | 0.118 ± 0.051
CTCAGTGA | -0.103 ± 0.036
GCTGTAGA | -0.166 ± 0.067
ACAATTCT | 0.0549 ± 0.028
ATCCGCAT | -0.148 ± 0.045
CTAGAACC | -0.0393 ± 0.046
GGGCCGAA | -0.138 ± 0.0027
AAACTTGT | 0.189 ± 0.092
CGATCTCA | 0.163 ± 0.012
CCCCGAGG | -0.235 ± 0.022
CGGTTAGA | -0.177 ± 0.06
AACGCCCG | 0.0512 ± 0.098
CATGAAGC | -0.112 ± 0.013
ACGTTCTG | -0.0801 ± 0.023
ACATTGCA | 0.0438 ± 0.031
TATGTTGA | -0.0189 ± 0.057
CCAGGACA | 0.0415 ± 0.071
GACGTCCA | -0.0714 ± 0.046
GATGGTCC | -0.321 ± 0.041
ACGCAATA | -0.0451 ± 0.032
GCTCGAAC | -0.0832 ± 0.0097
AGTCAAGG | -0.134 ± 0.031
ACACTTAC | 0.4 ± 0.024
GGCTCCAC | -0.081 ± 0.098

Sequence | PBM E-score of 8-mer
GCGAGGAA | 0.221 ± 0.048
AACAGAGG | -0.131 ± 0.024
ACTCACAC | 0.469 ± 0.0082
GTCCAAAC | -0.0101 ± 0.016
GTACCATA | -0.259 ± 0.012
AGAGGTTG | 0.0805 ± 0.04
AAATAGAC | -0.109 ± 0.071
CGTACGTC | -0.0758 ± 0.019
ATAAAGCG | 0.109 ± 0.016
AGTTCGCG | 0.296 ± 0.038
AAGCAACA | 0.107 ± 0.0079
CAGGGTGC | 0.211 ± 0.027
CCGTCCGC | 0.00261 ± 0.12
GATGAGAA | -0.0183 ± 0.022
GGCCCCGA | -0.356 ± 0.019
GAACCAGA | -0.05872 ± 0.00022
AGATAGAG | -0.0538 ± 0.0031
CAAGTTCC | -0.0186 ± 0.026
ACGCATCA | 0.163 ± 0.073
CAGTTGAA | 0.046 ± 0.073
ACTGTAAC | 0.124 ± 0.0017
AAGTAGCG | 0.0931 ± 0.034
CGGTCAAG | -0.26 ± 0.036
AGTTTTAC | -0.0655 ± 0.027
CTTGACCA | -0.0389 ± 0.05

Sequence | PBM E-score of 8-mer
CGCGTTGC | 0.2402 ± 0.0013
ATGGCACC | 0.3573 ± 0.0028
CGGGTGCC | 0.18 ± 0.0043
TGTTTGAA | 0.128 ± 0.084
AGAATTCG | -0.111 ± 0.014
GGGGGTCA | 0.0604 ± 0.0046
ACGTGGTG | 0.191 ± 0.038
CGGCTAAA | -0.0102 ± 0.0022
GACGCGTC | 0.316 ± 0.017
AAAAAGAT | -0.246 ± 0.081
CTCCCCGC | 0.00243 ± 0.072
AGGAAGTA | -0.176 ± 0.044
AACATGCG | 0.166 ± 0.015
CCTAACGA | -0.0256 ± 0.021
GTTCCGTA | -0.18 ± 0.034
ACTAGAAG | 0.00416 ± 0.045
AGGATGCG | 0.0581 ± 0.018
AAACACTA | 0.0817 ± 0.032
GTATACCA | 0.0254 ± 0.057
